Test results taken from the supplement of paper PMC4604168 (melanoma cell lines).
Some of the results follow. Single values are uncertain, as repeats are few or missing.

How the values were obtained:
Assay in all cases: cell count relative to DMSO control; melanoma cells; higher = more viable cells
Settings in all cases: library dose: standard library concentration; 72 h
[1] = system: G361
[2] = system: IPC-298
[3] = system: IST-MEL1
[4] = system: LB2518-MEL
[5] = system: LOXIMVI
[6] = system: MEL-HO
[7] = system: MZ2-MEL
[8] = system: MeWo
[9] = system: RPMI7951
[10] = system: RVH-421
[11] = system: SkMel28
[12] = system: SkMel2
[13] = system: SkMel30
[14] = system: SkMel5
[15] = system: UACC257
[16] = system: UACC62
[17] = system: WM115
[18] = system: WM1716
[19] = system: WM3526
[20] = system: WM1745
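Further: cells treated in 1,536-well plates, then fixed and DAPI-stained, with nuclei counted from automated high-throughput microscope images.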

SMILES | cell count [1] [%] | cell count [2] [%] | cell count [3] [%] | cell count [4] [%] | cell count [5] [%] | cell count [6] [%] | cell count [7] [%] | cell count [8] [%] | cell count [9] [%] | cell count [10] [%] | cell count [11] [%] | cell count [12] [%] | cell count [13] [%] | cell count [14] [%] | cell count [15] [%] | cell count [16] [%] | cell count [17] [%] | cell count [18] [%] | cell count [19] [%] | cell count [20] [%]
CO[C@H]1C[C@@H]2CC[C@@H](C)[C@@](O)(O2)C(=O)C(=O)N2CCCC[C@H]2C(=O)O[C@H]([C@H](C)C[C@@H]2CC[C@@H](OCCO)[C@H](OC)C2)CC(=O)[C@H](C)/C=C(\C)[C@@H](O)[C@@H](OC)C(=O)[C@H](C)C[C@H](C)/C=C/C=C/C=C/1C [everolimus] + Cc1cc([N+](=O)[O-])ccc1NS(=O)(=O)c1cc(Cl)ccc1Cl [FH535] (first compound 0.1 µM, partner dose 5 µM) | 35 | 44.5 | 52.3 | 59.4 | 67 | 34.6 | 54.8 | 49.2 | 70.5 | 65.8 | 35.2 | 52.6 | 71.2 | 43.3 | 63.2 | 88.4 | 55.8 | 54.7 | 54.9 | –
CC(=O)c1c(C)c2cnc(Nc3ccc(N4CCNCC4)cn3)nc2n(C2CCCC2)c1=O [palbociclib] + COc1ccc(Cl)c(Nc2nc3ccccc3nc2NS(=O)(=O)c2cccc(NC(=O)C(C)(C)N)c2)c1 [XL147] (first compound 0.2 µM, partner dose 4 µM) | 73.6 | 67.9 | 51.4 | 70.2 | 118 | 69.7 | 71.7 | 69.7 | 82.1 | 72.2 | 44 | 73.4 | 73.4 | 58 | 78.2 | 63 | 48.6 | 45.7 | 45.1 | 77.1
Nc1ncn([C@H]2C[C@H](O)[C@@H](CO)O2)c(=O)n1 [decitabine] + COc1ccc(-c2ccc3c(N4CCOCC4)nc(N4C[C@@H](C)O[C@@H](C)C4)nc3n2)cc1CO [KU0063794] (first compound 0.5 µM, partner dose 0.1 µM) | 65.9 | 46.3 | 83.8 | 74.7 | 75.9 | 71.9 | 55.9 | 69 | 76.1 | 30.3 | 85.3 | 78.5 | 75 | 60.8 | 110 | 66.7 | 78 | 86.3 | 85.4 | –
CO[C@H]1C[C@@H]2CC[C@@H](C)[C@@](O)(O2)C(=O)C(=O)N2CCCC[C@H]2C(=O)O[C@H]([C@H](C)C[C@@H]2CC[C@@H](OCCO)[C@H](OC)C2)CC(=O)[C@H](C)/C=C(\C)[C@@H](O)[C@@H](OC)C(=O)[C@H](C)C[C@H](C)/C=C/C=C/C=C/1C [everolimus] + COc1ccc(COc2ccc(Cc3cnc(N)nc3N)cc2OC)cc1 [GW2580] (first compound 0.1 µM, partner dose 5 µM) | 50.2 | 80.2 | 91.2 | 74.6 | 90.4 | 82.5 | 78.1 | 70.9 | 98.8 | 84.5 | 49.4 | 64.2 | 70 | 63.3 | 88 | 64.9 | 70.2 | 78.4 | 105 | –
CC(=O)c1c(C)c2cnc(Nc3ccc(N4CCNCC4)cn3)nc2n(C2CCCC2)c1=O [palbociclib] + Cc1nc(Nc2ncc(C(=O)Nc3c(C)cccc3Cl)s2)cc(N2CCN(CCO)CC2)n1 [dasatanib] (first compound 0.2 µM, partner dose 0.02 µM) | 51.5 | 70.5 | 66.8 | 60 | 18.2 | 71.6 | 54 | 44.4 | 58.3 | 45.8 | 33.3 | 76.7 | 62.4 | 44.5 | 80.3 | 59.3 | 46.4 | 40.9 | 41.1 | 47.1
CC(=O)O[C@@]12CO[C@@H]1C[C@H](O)[C@@]1(C)C(=O)[C@H](O)C3=C(C)[C@@H](OC(=O)[C@H](O)[C@@H](NC(=O)OC(C)(C)C)c4ccccc4)C[C@@](O)([C@@H](OC(=O)c4ccccc4)[C@H]21)C3(C)C [Docetaxel] + COc1ccc2c(c1)CCC1C2CCC2(C)C(NCCCCCCN3C(=O)C=CC3=O)CCC12 [U73122] (first compound 0.0005 µM, partner dose 2 µM) | 11 | 43.9 | 30 | 43.2 | 49.5 | 35.2 | 41.9 | 17.7 | 18.7 | 52.2 | 18.3 | 14.9 | 65 | 27.1 | 47.1 | 55.1 | 32.2 | 32.1 | 34.2 | –
CC(=O)O[C@@]12CO[C@@H]1C[C@H](O)[C@@]1(C)C(=O)[C@H](O)C3=C(C)[C@@H](OC(=O)[C@H](O)[C@@H](NC(=O)OC(C)(C)C)c4ccccc4)C[C@@](O)([C@@H](OC(=O)c4ccccc4)[C@H]21)C3(C)C [Docetaxel] + O=c1cc(-c2cccc3c2Sc2ccccc2S3)oc(N2CCOCC2)c1 [KU55933] (first compound 0.0005 µM, partner dose 5 µM) | 15.4 | 41.4 | 33.1 | 28.1 | 60.9 | 37.9 | 44.8 | 19.5 | 21.9 | 50.6 | 10.5 | 16 | 44.9 | 39.4 | 59.4 | 49.2 | 32.3 | 32.5 | 36.2 | –
Nc1ccn([C@@H]2O[C@H](CO)[C@@H](O)C2(F)F)c(=O)n1 [gemcitabine] + Cn1cncc1[C@@](N)(c1ccc(Cl)cc1)c1ccc2c(c1)c(-c1cccc(Cl)c1)cc(=O)n2C [tipifarnib] (first compound 0.002 µM, partner dose 0.05 µM) | 31.2 | 47.9 | 43.8 | 66 | 74.2 | 57.6 | 92.9 | 36.2 | 68.4 | 50 | 83.3 | 91.3 | 97.4 | 90.6 | 106 | 90.2 | 53.3 | 63.4 | 83.3 | 64.4
CC(=O)c1c(C)c2cnc(Nc3ccc(N4CCNCC4)cn3)nc2n(C2CCCC2)c1=O [palbociclib] + CC(C)CCN1c2nc(Nc3cc(F)c(O)c(F)c3)ncc2N(C)C(=O)C1C [BID1870] (first compound 0.2 µM, partner dose 1 µM) | 47.4 | 64.7 | 68 | 68.7 | 91.3 | 67.3 | 68.4 | 44.4 | 81.1 | 44.4 | 31.8 | 49.7 | 62.1 | 44.3 | 88.1 | 44.7 | 59.5 | 22.6 | 42.1 | –
Nc1ncn([C@H]2C[C@H](O)[C@@H](CO)O2)c(=O)n1 [decitabine] + CCc1ccc(CCOc2ccc(CC3SC(=O)NC3=O)cc2)nc1 [pioglitazone] (first compound 0.5 µM, partner dose 10 µM) | 79.8 | 58.9 | 82.1 | 79.4 | 69.4 | 80.7 | 89.9 | 59.9 | 56.6 | 75.4 | 120 | 96.7 | 84.2 | 75.2 | 98.2 | 67.4 | 73.7 | 69.9 | 93.1 | –
CO[C@H]1C[C@@H]2CC[C@@H](C)[C@@](O)(O2)C(=O)C(=O)N2CCCC[C@H]2C(=O)O[C@H]([C@H](C)C[C@@H]2CC[C@@H](OCCO)[C@H](OC)C2)CC(=O)[C@H](C)/C=C(\C)[C@@H](O)[C@@H](OC)C(=O)[C@H](C)C[C@H](C)/C=C/C=C/C=C/1C [everolimus] + COc1ccc(-c2ccc3c(N4CCOCC4)nc(N4C[C@@H](C)O[C@@H](C)C4)nc3n2)cc1CO [KU0063794] (first compound 0.1 µM, partner dose 0.1 µM) | 41.2 | 50.9 | 65.1 | 49 | 64.5 | 52.1 | 44.6 | 47.2 | 63.6 | 56.3 | 24.4 | 43.6 | 67.8 | 42.4 | 69.8 | 65.9 | 64.2 | 58.6 | 59.9 | –
CC(=O)O[C@@]12CO[C@@H]1C[C@H](O)[C@@]1(C)C(=O)[C@H](O)C3=C(C)[C@@H](OC(=O)[C@H](O)[C@@H](NC(=O)OC(C)(C)C)c4ccccc4)C[C@@](O)([C@@H](OC(=O)c4ccccc4)[C@H]21)C3(C)C [Docetaxel] + CC(C)CCN1c2nc(Nc3cc(F)c(O)c(F)c3)ncc2N(C)C(=O)C1C [BID1870] (first compound 0.0005 µM, partner dose 1 µM) | 10.9 | 38.2 | 29 | 45 | 67.6 | 37.2 | 39.7 | 17.6 | 23.1 | 50.3 | 10.3 | 10.5 | 42.3 | 30.1 | 57.1 | 45.8 | 33.8 | 33.5 | 28.2 | –
CC(=O)c1c(C)c2cnc(Nc3ccc(N4CCNCC4)cn3)nc2n(C2CCCC2)c1=O [palbociclib] + COc1cc2c(Oc3ccc4[nH]c(C)cc4c3F)ncnc2cc1OCCCN1CCCC1 [cediranib] (first compound 0.2 µM, partner dose 2 µM) | 75.9 | 82.3 | 72.5 | 58 | 65.1 | 86.8 | 83.6 | 53.5 | 61.8 | 63.6 | 46.5 | 52.7 | 87.2 | 66.5 | 84.7 | 52.4 | 65.9 | 54.8 | 48.9 | 77.9
Nc1nc(F)nc2c1ncn2[C@@H]1O[C@H](CO)[C@@H](O)[C@@H]1O [fludarabine] + O=C1NC(=O)/C(=C/c2ccc(-c3ccc(F)cc3O)o2)S1 [AS252424] (first compound 1 µM, partner dose 5 µM) | 76.9 | 75.7 | 79.1 | 87.5 | 98.7 | 83 | 91 | 71.8 | 59.7 | 105 | 1.26 | 0.707 | 20.7 | 31.2 | 28.4 | 81.8 | 96.3 | 93.2 | 21.6 | –
Nc1nc(F)nc2c1ncn2[C@@H]1O[C@H](CO)[C@@H](O)[C@@H]1O [fludarabine] + O=C(Nc1ccccc1)c1cc([N+](=O)[O-])ccc1Cl [GW9662] (first compound 1 µM, partner dose 10 µM) | 79.5 | 66.6 | 88.4 | 89.4 | 72.2 | 74.7 | 92.7 | 74.2 | 56.9 | 93.1 | 1.22 | 1.46 | 16.6 | 38.7 | 25.7 | 67.8 | 81.1 | 118 | 26.8 | –
